Measurements reported in PubChem BioAssay AID1479 (National Center for Advancing Translational Sciences (NCATS), 2009).
Among all 280,000 compounds or so, about 820 (0.29%) were called active. The shares of active, inactive and inconclusive entries below differ from those in the screen. Calls come from the whole dose curve; as a rule, active = well fitted curve in either direction with a large enough effect; inconclusive = small, poorly fitted or top-dose-only effect; inactive = flat fitted curve, though single readings scatter. Potencies of inconclusive entries are left out as doubtful fits.

Assay: Total Fluorescence Counterscreen for Inhibitors of the Interaction of Thyroid Hormone Receptor and Steroid Receptor Coregulator 2
Conditions: TRb/SRC2 Texas Red total fluorescence interference; series mostly up to 106 µM; fluorescence change, negative = quenching: at the top concentration
Summary of the method: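 Human TRβ ligand-binding domain (0.6 uM) and Texas Red SRC2 peptide (20 nM) in Tris buffer with 1 uM T3 and 5% DMSO were incubated with pinned compound for 5 hr at ambient temperature. Total fluorescence was computed as S + 2P (555/632 nm).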
% is set by controls: 0 for no effect and ±100 for the full control effect; potency is the fitted concentration of half-maximal effect; tags give direction and shape of the fitted curve or compound fluorescence and quenching.

| Structure (SMILES) | Potency | fluorescence change, negative = quenching |
| --- | --- | --- |
| COc1ccc([N+](=O)[O-])cc1NC(=O)Cc1c(Cl)cccc1Cl | inconclusive [falling, full curve, poor fit] |  |
| COc1ccc(C(=O)NCCn2cc(SCC(=O)NCCc3ccc(OC)c(OC)c3)c3ccccc32)cc1 | inconclusive [quencher, full curve] |  |
| Cn1cc(S(=O)(=O)c2ccc(Cl)cc2)c(=O)c2cc(F)c(N3CCCC3)cc21 | inconclusive [quencher, full curve] |  |
| COc1ccc(-c2cc(C(=O)Nc3ccc4c(c3)OCO4)no2)cc1OC | inconclusive [quencher, full curve] |  |
| O=C(/C=C/c1ccc2c(c1)OCO2)Nc1nc(-c2ccccc2)cs1 |  | inactive: -0.946% |
| COc1ccc(/C=C2\N=C(c3ccccc3)N(c3ccc(C(=O)O)cc3)C2=O)cc1OC |  | inactive: -5.59% |
| Cc1cc(C)cc(NS(=O)(=O)c2ccc3[nH]cc(C(=O)N4CCCCCC4)c(=O)c3c2)c1 |  | inactive: -1.1% |
| COc1ccc(O)c(/C=N/NC(=O)c2cc(=O)[nH]c3ccccc23)c1 |  | inactive: -4.7% |
| CCCN1CCN(CCCNC(=O)Cn2c(-c3cccs3)cc3ccccc32)CC1 | inconclusive [quencher, full curve] |  |
| CCN1CCN(c2c(S(=O)(=O)c3ccccc3)cnc3ccc(Cl)cc23)CC1 | inconclusive [falling, full curve, poor fit] |  |
| COc1ccc(C(=O)N[C@H](C(=O)OCC(=O)NC(=O)c2cccn2C)C(C)C)cc1 | inconclusive [falling, full curve, poor fit] |  |
| O=[N+]([O-])c1cc(F)c2cccnc2c1O | inconclusive [falling, single point] |  |
| CCCCCC(=O)Nc1ccc(NC(=O)c2cc3ccccc3o2)c(OC)c1 | inconclusive [quencher] |  |
| Cc1oc2ccc(O)c(CN3CCN(C)CC3)c2c1C(=O)Nc1cccc(C(F)(F)F)c1 | inconclusive [falling, partial curve, poor fit] |  |
| CCCNC(=O)C(CC)n1nc(CC)n2c(cc3oc(C)cc32)c1=O (stereo unspecified) | active: 22.4 µM [quencher] |  |
| COc1cccc(NC(=O)Cn2c(=O)n(CCc3ccccc3)c(=O)c3c4c(sc32)CN(C(C)=O)CC4)c1 | inconclusive [quencher, full curve] |  |
| Cc1ccc(C(=O)c2oc3ccccc3c2NC(=O)COc2ccccc2Cl)cc1 | inconclusive [falling, full curve, poor fit] |  |
| Cc1c(Cl)cccc1NC(=O)Cn1nnc2sc3c(c2c1=O)CCCC3 | inconclusive [falling, full curve, poor fit] |  |
| CCN(CC)S(=O)(=O)c1ccc(N=NC2=C(O)CCCC2=O)cc1 | active: 44.7 µM [fluorescent] |  |
| O=c1c(O)cc(C2Oc3cc(O)cc(O)c3CC2O)cc2c(C3Oc4cc(O)cc(O)c4CC3O)cc(O)c(O)c12 (stereo unspecified) | active: 28.2 µM [quencher] |  |
| O=C(NCc1ccc2c(c1)CCN2C(=O)c1ccc(F)cc1)c1ccco1 | inconclusive [falling, partial curve, poor fit] |  |

| Structure (SMILES) | Potency | fluorescence change, negative = quenching |
| --- | --- | --- |
| Cc1cccc(CNC(=O)c2ccc(Cn3c(SCc4cccc(F)c4)nc4cccnc43)cc2)c1 | inconclusive [quencher, full curve] |  |
| CCCN1C(=O)/C(=C\C=C2/C=CN(CC)c3ccccc32)SC1=S | inconclusive [falling, partial curve, poor fit] |  |
| COc1cc(N)c(Cl)cc1C(=O)OCCN1CCCCC1 | inactive |  |
| COc1ccc(C(=O)NC(=S)NNC(=O)c2cnccn2)cc1 |  | inactive: -5.09% |
| CCCNC(=O)N1N=C(c2ccc(N)cc2)c2cc3c(cc2C1C)OCO3 (stereo unspecified) | inconclusive [falling, full curve, poor fit] |  |
| COc1ccc(C(=O)Nc2ccc(NC(=O)c3cccs3)cc2)cc1Cl | inconclusive [falling, full curve, poor fit] |  |
| Cc1ccc2nc(SCc3nc(-c4ccccc4C)no3)[nH]c2c1 | inconclusive [falling, full curve, poor fit] |  |
| COc1cc(CCC(=O)NCc2ccc3c(c2)CCN3C(=O)c2cccc(C)c2)cc(OC)c1OC | inconclusive [falling, full curve, poor fit] |  |
| COC(=O)CCCC1=CC2=CC(=O)C(C)(OC(=O)CCc3ccccc3)C(=O)C2=CO1 (stereo unspecified) | inconclusive [rising, single point] |  |
| CCc1ccc(C(=O)c2cnc3ccc(C)cc3c2S(=O)(=O)c2ccc(OC)cc2)cc1 | inconclusive [falling, full curve, poor fit] |  |
| NC(=O)SCC(=O)Nc1cccc(Cl)c1 |  | inactive: -3.77% |
| CCNC(=O)Cn1c(=O)c(=O)n(Cc2ccccc2)c2ccc(Cl)cc21 | inconclusive [falling, full curve, poor fit] |  |
| Cc1c(C#N)c(N)nc2c3c(sc12)NC(=O)CC3c1ccc(Cl)cc1 (stereo unspecified) | inconclusive [falling, partial curve, poor fit] |  |
| CCc1cccc(NC(=O)c2nc(-c3ccncc3)no2)c1 | inconclusive [falling, full curve, poor fit] |  |
| CCCCN(C)C(=O)CN1C(=O)CCn2nc(-c3cn(C)c4ccccc34)cc21 | inconclusive [falling, full curve, poor fit] |  |
| CCOc1ccccc1NC(=O)CN(CCc1ccccc1)S(=O)(=O)c1ccc(C)cc1 | active: 0.0316 µM [quencher] |  |
| CCn1ccc2cc(S(=O)(=O)N3CCC(C(=O)NCCc4ccc(SC)cc4)CC3)ccc21 | inconclusive [falling, full curve, poor fit] |  |
| O=C1/C(=C\c2ccc(O)c(O)c2)Oc2cc(O)ccc21 | inconclusive [quencher, partial curve] |  |
| CC(C)CCNC(=O)[C@@H](c1ccccc1)N1Cc2ccccc2C1=O | inconclusive [quencher, partial curve] |  |
| Cc1cc(C)cc(OCC(=O)NCC2(N(C)C)CCCCC2)c1 | inconclusive [falling, partial curve, poor fit] |  |
| CCCc1nc2ccccc2n2c(-c3cccc(C)c3)c3c(=O)n(C)c(=O)n(C)c3c12 | inconclusive [falling, full curve, poor fit] |  |

| Structure (SMILES) | Potency | fluorescence change, negative = quenching |
| --- | --- | --- |
| COc1cc(OC)c(NS(=O)(=O)c2ccc3c(c2)NC(=O)CCS3)cc1Cl | inconclusive [falling, full curve, poor fit] |  |
| O=C(O)C[C@@H]1C(=O)O[C@@H]2C(COC(=O)c3cc(O)c(O)c(O)c3)O[C@@H](OC(=O)c3cc(O)c(O)c(O)c3)[C@@H](OC(=O)c3cc(O)c(O)c4c3[C@H]1[C@H](O)C(=O)O4)[C@H]2OC(=O)c1cc(O)c(O)c(O)c1 (stereo partly specified) | inconclusive [quencher, partial curve] |  |
| COc1cccc(NC(=O)C2CCN(C(=O)N3CC(C)Oc4ccccc43)CC2)c1 (stereo unspecified) | inconclusive [falling, full curve, poor fit] |  |
| Cc1cc(NC(=O)c2cc(-c3ccc(Cl)cc3)on2)nn1Cc1ccc(Cl)cc1 | inconclusive [falling, full curve, poor fit] |  |
| CCC1CN(C(=O)Nc2cc(C)cc(C)c2)c2ccccc2O1 (stereo unspecified) | inconclusive [falling, full curve, poor fit] |  |
| O=C(CS(=O)(=O)c1cccc2nsnc12)NCc1ccc(Cl)cc1 | active: 1.78 µM [quencher] |  |
| CCOC(=O)c1c(NC(=O)Cc2coc3cc(C)ccc23)sc2c1CCCC2 | active: 0.1 µM [quencher] |  |
| CCC1CN(C(=O)N2CCC(C(=O)NCCc3ccccc3C)CC2)c2ccccc2O1 (stereo unspecified) | inconclusive [falling, full curve, poor fit] |  |
| NS(=O)(=O)c1ccc(N/N=C2/CCCc3ccccc32)c([N+](=O)[O-])c1 |  | inactive: 0.967% |
| O=S(=O)(O)c1ccc2c(c1)-c1nc-2nc2[nH]c(nc3nc(nc4[nH]c(n1)c1ccc(S(=O)(=O)O)cc41)-c1ccc(S(=O)(=O)O)cc1-3)c1ccc(S(=O)(=O)O)cc21 | active: 2.24 µM [quencher] |  |
| COc1ccc(C/C(C)=N/NC(=O)c2cccnc2)cc1 | inconclusive [quencher, full curve] |  |
| Cc1cc(C)nc(NN2C(=O)/C(=C/c3ccccc3)SC2=S)n1 |  | inactive: -0.213% |
| C=CCN1C(=O)/C(=C/c2ccc(O)c(OC)c2)S/C1=N/c1nccs1 |  | inactive: -6.79% |
| Cc1ccc(N2C(=O)CN(Cc3sccc3C)C2=S)cc1C | inconclusive [falling, full curve, poor fit] |  |
| Cc1ccsc1CN(C(=O)c1oc2cc(Br)ccc2c1C)C1CCS(=O)(=O)C1 (stereo unspecified) | inconclusive [falling, partial curve, poor fit] |  |
| O=C(Nc1ccc(OCc2cc(=O)n3c4c(sc3n2)CCCC4)cc1)c1ccccc1 |  | inactive: -0.109% |
| CC(=O)Nc1ccc(NC(=O)Cn2nc(C(=O)Nc3ccc(C)cc3)ccc2=O)cc1 | inconclusive [falling, partial curve, poor fit] |  |
| CCC(=O)N1CCc2cc(Br)cc(S(=O)(=O)N3CCCC(C(=O)N(C)c4ccc(Br)cc4)C3)c21 (stereo unspecified) | active: 178 µM [quencher] |  |
| Clc1ccc(N2CCN(c3ncnc4c3nc3n4CCCC3)CC2)cc1 | inconclusive [quencher, full curve] |  |
